Test [1] concerns the target T1, Endogenous Hsc70 from Hela cell lysate (UniProt P11142).
T1 construct: mature; Detected with anti-Hsc/Hsp70 antibody SPA822
As to the kind of experiment: GST pull-down from Hela cell lysate, anti-Hsc/Hsp70 immunoblot. The method, then:
(§1) Binding assays with GST-CD40. For binding of endogenous Hsp70 and Hsc70 from Hela cell lysate, Hela cells were lysed as described above and centrifuged at 100,000 g at 4° C. for 1 h. 20 μl bed volume of Glutathione Sepharose 4 Fast Flow (Amersham Pharmacia) per sample were preincubated with 80 pmol or 400 pmol of GST or GST-CD40 fusion protein in 50 μl binding buffer. Unbound protein was removed by washing three times with PBS. The beads were treated with 1% BSA/PBS to avoid non-specific binding, and than incubated with 150 μl of Hela cell lysate in the presence of 2 mM DTT for 20 min at 16° C. […] 10 μl of the eluates was subjected to SDS-PAGE and analyzed by immunoblotting using an anti-Hsc/Hsp70 antibody and an anti-Hsp90: antibody (SPA822 and SPA835, Stressgen).
(§2) Details for FIG. 3. […] Thereafter samples were affinity purified on glutathione-Sepharose as outlined in Experimental Procedures, subjected to SDS-PAGE and analyzed by immunoblotting with antibodies directed against Hsc70 and Hsp70 (upper lanes), and against Hsp90 (lower lanes). […] After affinity purification samples were analyzed by immunoblotting as described in A, using antibodies directed against the His6-tag. […] Protein bound to Hsp70 was analyzed by affinity purification on Ni-NTA-agarose and immunoblotting with antibodies directed against CD40.
(A western blot detects proteins with antibodies after separation by electrophoresis.)

In test [2] the target is T2, Endogenous Hsp70 from Hela cell lysate (UniProt P0DMV8).
T2 construct: mature; Detected with anti-Hsc/Hsp70 antibody SPA822
Described as above. The method, then:
as §1, §2

Test [3] has as its target T3, Recombinant human His6-tagged Hsp70 (human, UniProt P0DMV8).
T3 construct: mature; also called His6-Hsp70; human Hsp70
Nature of the test: glutathione-Sepharose pull-down of recombinant His6-Hsp70, anti-His immunoblot. The method, then:
For comparison of CD40 binding of Hsp70 and its N-terminal domain, Hsp70 was preincubated in the presence or absence (mock treatment) of a 30-fold molar excess of peptide C. 3 μM of GST or GST-CD40 was added to the samples and incubated for 20 min at 16° C. For titration of peptide C, 5- to 50-fold excess of peptide C (15-150 μM) was added to the preincubation of Hsp70. Thereafter the samples were combined with 20 μl of 1% BSA-treated Glutathione Sepharose 4 Fast Flow and incubated in the presence of 2 mM DTT for another 20 min at 16° C. Unbound proteins were removed by washing the beads three times with 1 ml PBS, and immobilized proteins eluted with 30 μl elution buffer for 20 min at 22° C. 10 μl of the eluates were subjected to SDS-PAGE and analyzed by immunoblotting using a Penta-His-antibody (Quiagen). Blot signals were quantified by Quantity One (Biorad).
Details for FIG. 3. Binding of Hsp70 to CD40 is direct and depends on ADP. […] Thereafter samples were affinity purified on glutathione-Sepharose as outlined in Experimental Procedures, subjected to SDS-PAGE and analyzed by immunoblotting with antibodies directed against Hsc70 and Hsp70 (upper lanes), and against Hsp90 (lower lanes). […] After affinity purification samples were analyzed by immunoblotting as described in A, using antibodies directed against the His6-tag. […]

T1 sequence (P11142 2-646 limits assumed): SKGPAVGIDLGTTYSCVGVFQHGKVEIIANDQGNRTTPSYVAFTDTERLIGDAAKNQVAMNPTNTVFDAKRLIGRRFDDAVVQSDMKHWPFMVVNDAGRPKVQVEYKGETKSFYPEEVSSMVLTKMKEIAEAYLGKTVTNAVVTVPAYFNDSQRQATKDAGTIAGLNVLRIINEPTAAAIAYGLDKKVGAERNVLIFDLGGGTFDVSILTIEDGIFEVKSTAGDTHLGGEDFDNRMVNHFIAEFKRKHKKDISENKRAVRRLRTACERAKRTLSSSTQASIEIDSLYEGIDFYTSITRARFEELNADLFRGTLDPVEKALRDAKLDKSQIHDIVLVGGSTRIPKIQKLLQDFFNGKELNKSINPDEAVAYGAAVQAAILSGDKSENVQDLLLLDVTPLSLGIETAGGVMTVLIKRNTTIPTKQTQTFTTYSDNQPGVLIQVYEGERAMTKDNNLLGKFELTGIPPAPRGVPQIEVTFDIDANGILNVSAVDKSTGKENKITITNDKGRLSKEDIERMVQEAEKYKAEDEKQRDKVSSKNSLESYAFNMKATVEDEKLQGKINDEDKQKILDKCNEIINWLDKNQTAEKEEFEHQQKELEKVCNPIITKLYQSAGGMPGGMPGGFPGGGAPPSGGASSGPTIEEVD

B1: GST (recombinant, purified by glutathione affinity chromatography) (enzyme)
chain: not shown
notes: Negative control in the pull-down assays; also called GST alone; GST (control)
On to B1, for which the binding result in test [1] is “no binding”; in test [2], “no binding”; in test [3], “no binding (tested: 3 µM)”.

The record behind these values is US20040071656A1 (published 2004).
